In the supplement of paper PMC10126150:
Sequences with one replicate were seen in a single cluster, so their values are uncertain.

Tested on: ATP
Experiment: switch fluorescence ratio, 500 uM ATP over buffer (Cy3 cluster intensity, sum of 5 cycles each) (fold (ratio)); higher = stronger signal-on switching upon ATP binding; sequences stand for … in TCGTCGGCAGCGTCAGATGTGTATAAGAGACAGTTTTTTTTTTTTTTTTTTTTTTTTT…TC
Conditions: aptamer strand: ATP DNA aptamer (quencher-CACCTGGGGGAGTATTGCGGAGGAAGG + anchor), 100 nM annealed; ATP concentration: 500 uM; one replicate
Outline: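 Clusters with intensities outside 100-1000 RFU were excluded. The remaining Cy3-labelled switching-strand clusters on a modified Illumina MiSeq flow-cell had been annealed to 100 nM quencher-labelled ATP aptamer and imaged in selection buffer, then after 15 min with 500 uM ATP at 22 °C, for five cycles separated by NaOH stripping and re-annealing. The fluorescence ratio, averaged per switch-domain sequence, is each cluster's summed target-cycle Cy3 intensity over its summed buffer-cycle Cy3 intensity.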
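Further: ATP exposure 15 min at 22 °C before imaging.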

Row | Sequence | switch fluorescence ratio
1 | GTGTGGTTGA | 1
2 | GTTCATTTGG | 1
3 | ACTTAGCGAC | 6.42
4 | GCCGGCGGGG | 0.975
5 | CGAAACGGAG | 1.03
6 | TCATGAATAC | 1.22
7 | AACACGCT | 1.01
8 | CACTGGGTAT | 0.986
9 | TCCTTCCGC | 4.7
10 | TTCGGGAGTC | 1.02
11 | ATTACTCAAT | 0.966
12 | GGTTTTTGAC | 0.977
13 | CCTGACAGTT | 1.03
14 | GGTGTAGACG | 1.02
15 | ATCTGGGATT | 1.03
16 | GGCCTTTCGA | 0.976
17 | GGTATCTGGT | 0.937
18 | AAGGGGGAA | 0.956
19 | TATATTAGTT | 1.01
20 | ATTAGGCGGT | 0.982
21 | TTTCAGTCTT | 1.01
22 | TATTTCTACT | 1.02
23 | TAAGGTAGTA | 0.954

Row | Sequence | switch fluorescence ratio
24 | GAGTAGCCGG | 0.916
25 | CCTAAAGGTC | 1.03
26 | ACACTAGCGC | 1.11
27 | ATTAGGCCCT | 1.03
28 | CCAGTAGC | 1.09
29 | CCATTTAACG | 0.962
30 | CCATTCCGGG | 1.12
31 | GCCCCAGTCA | 1.08
32 | AGCTTCTTTA | 1.02
33 | GCCGGAGATG | 0.994
34 | CACGATCCTT | 1.01
35 | ATTCGGGTG | 1.21
36 | AAAAAAAG | 1.02
37 | ATTATATTCG | 0.952
38 | GATGGCACTA | 1.01
39 | ATCATGCAGA | 1.01
40 | GGCGCTCCGT | 1.05
41 | CCCACTTCCT | 1.54
42 | AAGGATTCGA | 1
43 | TGGCCAAAG | 1.01
44 | ATTGTGCTGC | 1.02
45 | AGGTTATAAT | 0.946
46 | AGGTGGCACT | 0.959

Row | Sequence | switch fluorescence ratio
47 | ATTTTGATGC | 1.05
48 | AGGCGCAGT | 1.05
49 | ATGGGTCAC | 1.02
50 | GGATACGTTA | 1.05
51 | TGATATACGG | 1.01
52 | GAAAATGTGA | 0.956
53 | ATGTTTACCG | 1.06
54 | CCCTATGGTT | 0.995
55 | TTCGGCTTCT | 0.947
56 | CAACAGTTAG | 0.985
57 | TATCGACATC | 1.09
58 | GACTATTTGA | 1.05
59 | CGGTATGCGT | 1.04
60 | CCGCCGGAGA | 1.6
61 | GTATAGAGTC | 0.978
62 | AAAATGTGCT | 1.08
63 | AAAGGTTAAT | 1.02
64 | TTGGTATCGA | 0.956
65 | TGGTCGCGAA | 1.01
66 | GCACTGGGAA | 1
67 | AAGGTCCGAA | 1.02
68 | GTTTCGAGGA | 0.939
69 | TGATGGTAGT | 0.981

Row | Sequence | switch fluorescence ratio
70 | ATTTGTGGCA | 0.986
71 | TGTTAGTGTG | 0.933
72 | AGAACCACAC | 1.31
73 | CCACGGAAGC | 1.46
74 | AAATACCTGG | 1.09
75 | CGTTGAACTC | 1.05
76 | TGATGCTGGA | 0.983
77 | TGCAGACCTA | 1.06
78 | CCATCTTATT | 0.946
79 | AGCTGGGCGA | 1.02
80 | TGTTTTAAT | 1.01
81 | AAAAGAACCT | 1.82
82 | CATTTTAA | 0.982
83 | AATAGGGCGC | 1.03
84 | CGGTGGGCCA | 0.997
85 | AAGCGAGGTG | 1.01
86 | TCCAAAAGCA | 1.88
87 | ATTTTTTG | 0.954
88 | CCATGCTTAG | 1.03
89 | GTTCGCTTAT | 1.11
90 | TACTGTTT | 0.984
91 | TTACGGCCAG | 1.01
92 | AGAATGTGTT | 0.974

Row | Sequence | switch fluorescence ratio
93 | CCAAAGGGTA | 1.21
94 | CAATTTGGT | 1.02
95 | CAAAGCCAAC | 1.25
96 | AGAAACGTCG | 1.11
97 | CCCTATTGTT | 1.09
98 | AGGGCCATTC | 1.01
99 | CCGAATCGTT | 1.04
100 | CATATAAATT | 0.984
101 | CCGGAGCTCG | 2.81
102 | TGAAAGATAG | 0.989
103 | ACAACTTGTG | 0.958
104 | TCAACGGCCT | 1.04
105 | CGATTATGAC | 1.02
106 | CTCATAGCTG | 1.03
107 | GAGTTGTTCT | 0.945
108 | ATAGTTCGTA | 0.989
109 | AAATTTCGAT | 1.01
110 | TCGTAGTCAT | 0.999
111 | GAATCGAAAG | 1.04
112 | GTGTGTAATC | 1.05
113 | GGTTGCACCT | 0.998
114 | TAGTAAAACG | 1.04
115 | TTCCTGATGG | 0.974

Row | Sequence | switch fluorescence ratio
116 | CAATTTCTCG | 0.995
117 | GCGGGCCATA | 1.03
118 | GTTAACAGTG | 1.04
119 | TTACGAAACA | 1.04
120 | TTTGAT | 0.948
121 | AGCCATCACC | 1.05
122 | CCAATGTTAG | 1
123 | CGACTTGCAG | 0.958
124 | AAGCTCACCA | 1.09
125 | ATAAGGTAAA | 0.996
126 | TCGCAGATTC | 2.91
127 | GTCTCGGACC | 0.976
128 | CGGTAGGCT | 1.07
129 | AGCCTGCTTT | 0.997
130 | TTAAGGTGCA | 1.08
131 | TTCGTGCTGG | 0.985
132 | GGTTGCAGAT | 0.997
133 | GATAATGCA | 0.978
134 | AAGGAGATGG | 1.02
135 | GCTGAGTTAT | 0.972
136 | CGATCGTCCC | 1
137 | TAAGCCGACT | 2.22
138 | AGCTGTTTGT | 0.995

Row | Sequence | switch fluorescence ratio
139 | GTAGATTATA | 0.975
140 | TGAGTTCTAC | 0.909
141 | GTCAAAGTTC | 1.02
142 | GTCGGCGAGG | 0.969
143 | TGCGACCTCT | 0.93
144 | ACTTGACAAA | 1.13
145 | TGTGAACCG | 0.987
146 | CGTTCACATT | 1.01
147 | TGCTTGTCAG | 0.976
148 | ACTAACCACC | 1.3
149 | AAAACCAATC | 1.11
150 | TGTTTGAACC | 1.01
151 | ATATAAGT | 0.946
152 | TTCATAATTC | 1.03
153 | GGAATAGACA | 0.986
154 | ATGTTCACTA | 1.05
155 | ACAAAGCGCG | 0.994
156 | CACCTGGGGA | 1.01
157 | AGGGTCGTTT | 1
158 | ACGTTGTTAC | 1.16
